This is one part of the list. Most values come without repeats; read them as rough.
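Also: cells treated in 1,536-well plates, then fixed and DAPI-stained, with nuclei counted from automated high-throughput microscope images.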

This test deals with A101D. Put plainly: cell count relative to DMSO control; melanoma cells; higher = more viable cells. The conditions noted are these: library dose: standard library concentration; 72 h.
As to `C[C@]1(c2nc3c(C(N)=O)cccc3[nH]2)CCCN1` [Veliparib] + Oc1cc(-c2nc(-c3ccccc3)[nH]c2-c2ccncc2)ccc1Cl [L779450] (first compound 7 µM, partner dose 1 µM), the cell count came out at 87%.

`C[C@]1(c2nc3c(C(N)=O)cccc3[nH]2)CCCN1` [Veliparib] + COc1ccc2c(c1)CCC1C2CCC2(C)C(NCCCCCCN3C(=O)C=CC3=O)CCC12 [U73122] (first compound 7 µM, partner dose 2 µM) registered a cell count of 41.2%.

`OCCn1cc(-c2cnc3nnn(Cc4ccc5ncccc5c4)c3n2)cn1` + O=C(Nc1ccccc1)c1cc([N+](=O)[O-])ccc1Cl [GW9662] (first compound 5 µM, partner dose 10 µM) had a cell count of 82.3%.

`CN(C)S(=O)(=O)c1ccc2c(c1)/C(=C/c1cc3c([nH]1)CCCC3)C(=O)N2` + O=c1cc(-c2cccc3c2Sc2ccccc2S3)oc(N2CCOCC2)c1 [KU55933] (first compound 2 µM, partner dose 5 µM): the cell count amounted to 67%.

With `CO[C@@H]1[C@H](N(C)C(=O)c2ccccc2)C[C@H]2O[C@]1(C)n1c3ccccc3c3c4c(c5c6ccccc6n2c5c31)C(=O)NC4` [Midostaurin] + O=c1cc(-c2cccc3c2Sc2ccccc2S3)oc(N2CCOCC2)c1 [KU55933] (first compound 0.4 µM, partner dose 5 µM), the cell count came to 63.4%.

For the compound `C[C@]1(c2nc3c(C(N)=O)cccc3[nH]2)CCCN1` [Veliparib] + CCN(CC)CCCCNc1ncc2cc(-c3cc(OC)cc(OC)c3)c(NC(=O)NC(C)(C)C)nc2n1 [PD173074] (first compound 7 µM, partner dose 0.5 µM), the cell count came out at 102%.

`NC(=O)Nc1cc(-c2cccc(F)c2)sc1C(=O)N[C@H]1CCCNC1` + COC(=O)c1sccc1S(=O)(=O)Nc1ccc(Nc2ccccc2)cc1OC [GSK0660] (first compound 0.1 µM, partner dose 5 µM): the cell count was determined as 73.5%.

For `CN(C)S(=O)(=O)c1ccc2c(c1)/C(=C/c1cc3c([nH]1)CCCC3)C(=O)N2` + COc1ccc(COc2ccc(Cc3cnc(N)nc3N)cc2OC)cc1 [GW2580] (first compound 2 µM, partner dose 5 µM), the cell count worked out at 75.8%.

Compound `Cc1nc(Nc2ncc(C(=O)Nc3c(C)cccc3Cl)s2)cc(N2CCN(CCO)CC2)n1` [dasatanib] + Cc1cc([N+](=O)[O-])ccc1NS(=O)(=O)c1cc(Cl)ccc1Cl [FH535] (first compound 0.02 µM, partner dose 5 µM) gave a cell count of 64.3%.

As to `C=CCn1c(=O)c2cnc(Nc3ccc(N4CCN(C)CC4)cc3)nc2n1-c1cccc(C(C)(C)O)n1` + COc1ccc(COc2ccc(Cc3cnc(N)nc3N)cc2OC)cc1 [GW2580] (first compound 0.1 µM, partner dose 5 µM), the cell count worked out at 67%.

Compound `NCC(=O)Nc1ccc(-n2nc(C(F)(F)F)cc2-c2ccc3c(ccc4ccccc43)c2)cc1` + CCN(CC)CCCCNc1ncc2cc(-c3cc(OC)cc(OC)c3)c(NC(=O)NC(C)(C)C)nc2n1 [PD173074] (first compound 5 µM, partner dose 0.5 µM) had a cell count of 71.1%.

Turning to `C=CCn1c(=O)c2cnc(Nc3ccc(N4CCN(C)CC4)cc3)nc2n1-c1cccc(C(C)(C)O)n1` + CC(C)CCN1c2nc(Nc3cc(F)c(O)c(F)c3)ncc2N(C)C(=O)C1C [BID1870] (first compound 0.1 µM, partner dose 1 µM), the cell count was 58.5%.

With `CO[C@@H]1[C@H](N(C)C(=O)c2ccccc2)C[C@H]2O[C@]1(C)n1c3ccccc3c3c4c(c5c6ccccc6n2c5c31)C(=O)NC4` [Midostaurin] + O=C(O)C(=O)Nc1sc2c(c1C(=O)O)CCNC2 [TCS401] (first compound 0.4 µM, partner dose 8.33333 µM), the cell count amounted to 83.7%.

As for `CO[C@@H]1[C@H](N(C)C(=O)c2ccccc2)C[C@H]2O[C@]1(C)n1c3ccccc3c3c4c(c5c6ccccc6n2c5c31)C(=O)NC4` [Midostaurin] + COc1ccc2c(c1)CCC1C2CCC2(C)C(NCCCCCCN3C(=O)C=CC3=O)CCC12 [U73122] (first compound 0.4 µM, partner dose 2 µM), the cell count was 51.3%.

Turning to `NC(=O)Nc1cc(-c2cccc(F)c2)sc1C(=O)N[C@H]1CCCNC1` + COc1cc2ncnc(Nc3ccc(Oc4ccccc4)cc3)c2cc1OC [SrcI1] (first compound 0.1 µM, partner dose 10 µM), the cell count is 53.6%.

For the origin of these results see the supplement of paper PMC4604168 (melanoma cell lines).
